Data: PMC7725785 (2020)

Assays:
Purified His-tagged MYC [1] = target: T1, Purified His-tagged MYC (human, UniProt P01106); assay: SPR; with TRIB3
Purified His-tagged MYC [2] = target: T1, Purified His-tagged MYC; assay: SPR; with TRIB3; remark: listed apart in the source
Purified His-tagged MYC [3] = target: T1, Purified His-tagged MYC; assay: SPR; control (CTRL, without TRIB3)
Purified His-tagged MYC [4] = target: T1, Purified His-tagged MYC; assay: SPR; control (CTRL, without TRIB3); remark: listed apart in the source

T1 sequence (P01106 whole entry): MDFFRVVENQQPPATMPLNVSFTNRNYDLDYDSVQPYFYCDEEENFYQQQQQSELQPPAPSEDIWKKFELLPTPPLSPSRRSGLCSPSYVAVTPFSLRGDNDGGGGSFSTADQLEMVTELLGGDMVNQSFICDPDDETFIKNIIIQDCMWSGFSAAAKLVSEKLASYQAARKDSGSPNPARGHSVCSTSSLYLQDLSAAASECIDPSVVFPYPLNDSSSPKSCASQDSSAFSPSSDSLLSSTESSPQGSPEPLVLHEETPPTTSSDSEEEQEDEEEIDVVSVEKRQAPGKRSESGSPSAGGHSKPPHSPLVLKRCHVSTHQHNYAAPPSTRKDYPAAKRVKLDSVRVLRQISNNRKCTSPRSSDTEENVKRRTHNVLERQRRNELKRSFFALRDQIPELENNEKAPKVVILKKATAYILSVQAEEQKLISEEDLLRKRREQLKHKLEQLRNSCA

- koff (Purified His-tagged MYC [1]): 0.000205 s⁻¹
- Kd (Purified His-tagged MYC [2]): 0.178 nM
- koff (Purified His-tagged MYC [3]): 0.0143 s⁻¹
- Kd (Purified His-tagged MYC [4]): 2.03 nM
B1: MAX protein (SPR) (natural protein)
chain: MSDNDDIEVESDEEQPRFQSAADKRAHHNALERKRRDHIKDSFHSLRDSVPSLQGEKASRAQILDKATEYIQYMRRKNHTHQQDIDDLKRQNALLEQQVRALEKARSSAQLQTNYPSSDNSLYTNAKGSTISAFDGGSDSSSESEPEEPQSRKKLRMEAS
